Assay results as given in PubChem BioAssay (NCI).
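Grown in 96-well plates, cells were treated for 48 hours with each compound at five concentrations. Insufficient inhibition: endpoint recorded as highest concentration tested. GI50 marks 50% less growth. TGI: concentration producing complete growth inhibition.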

Tested on: NCI-H322M lung
Assay: NCI anticancer screen, dose series, 48 h

## CC(=O)Nc1nc(-c2ccc(N3CCN(C)CC3)c(NS(=O)(=O)c3cccc4c(N(C)C)cccc34)c2)cs1
  GI50: 12.6 µM
  TGI: 23.8 µM
